Source: the BET-seq Pho4 binding data (Le et al. 2018)
The other results are listed elsewhere or left out. The energies were worked out here from pooled read counts, against the library average; single values are noisy.

Molecular target: T1, Pho4 (S. cerevisiae) (UniProt P07270)
T1 sequence: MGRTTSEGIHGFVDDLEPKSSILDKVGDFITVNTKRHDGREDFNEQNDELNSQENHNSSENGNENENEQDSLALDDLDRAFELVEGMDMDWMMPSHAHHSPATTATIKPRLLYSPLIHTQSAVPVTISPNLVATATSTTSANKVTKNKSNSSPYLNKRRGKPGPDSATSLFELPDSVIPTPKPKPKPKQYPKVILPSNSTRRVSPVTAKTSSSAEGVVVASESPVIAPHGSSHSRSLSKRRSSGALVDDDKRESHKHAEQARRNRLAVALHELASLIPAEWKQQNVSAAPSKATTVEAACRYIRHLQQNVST
Assay: relative binding free energy (BET-seq); higher = weaker binding
Details: reference: library average

Row | Sequence | relative binding free energy
1 | AGTTACACGTGAGGAA | 0.26 kcal/mol
2 | ATGTCCACGTGTGTTT | 0.01 kcal/mol
3 | AGGTACACGTGTAAAG | 0.1 kcal/mol
4 | GTGGACACGTGAGGTA | 0.29 kcal/mol
5 | TATAGCACGTGGTGTA | -0.27 kcal/mol
6 | GTTAACACGTGATGCG | 0.21 kcal/mol
7 | GGAGACACGTGATGGA | 0.14 kcal/mol
8 | TACGTCACGTGAGAGG | 0.22 kcal/mol
9 | AGTTACACGTGCGTTT | 0.03 kcal/mol
10 | TAAGTCACGTGCAAGG | 0.04 kcal/mol
11 | GTGTACACGTGTCTGG | 0.03 kcal/mol
12 | GCGAGCACGTGTGTTT | 0.07 kcal/mol
13 | CAGGTCACGTGGTAGT | 0.07 kcal/mol
14 | GGTTTCACGTGAGAAG | 0.44 kcal/mol
15 | GTGTTCACGTGGAAAG | 0.33 kcal/mol
16 | GGCCGCACGTGTGGTG | -0.05 kcal/mol
17 | GATCGCACGTGTGGGG | 0.06 kcal/mol
18 | ATTTTCACGTGTTCGA | 0.32 kcal/mol
19 | TGTATCACGTGTTGCA | 0.02 kcal/mol
20 | TTAGTCACGTGTGGAA | 0.1 kcal/mol
21 | GTTCACACGTGGGTGT | -0.11 kcal/mol
22 | GGTTCCACGTGGATGT | 0.25 kcal/mol
23 | GTGATCACGTGAAGTG | 0.12 kcal/mol

Row | Sequence | relative binding free energy
24 | TGCGCCACGTGTGTGG | 0 kcal/mol
25 | CGAGGCACGTGTTGAG | -0.06 kcal/mol
26 | ATTAGCACGTGTGTGG | -0.11 kcal/mol
27 | GGCGCCACGTGGGTGA | -0.11 kcal/mol
28 | CTTGGCACGTGTATAT | -0.24 kcal/mol
29 | ATAAACACGTGGTGAG | -0.02 kcal/mol
30 | TTTTACACGTGTATCG | 0.18 kcal/mol
31 | GCGCGCACGTGTGGTG | -0.09 kcal/mol
32 | TTTTTCACGTGGAGGC | 0.34 kcal/mol
33 | ATATGCACGTGTTTGA | -0.06 kcal/mol
34 | GGGTTCACGTGTGATG | 0.39 kcal/mol
35 | ACGAACACGTGGGGTT | -0.13 kcal/mol
36 | AGCTGCACGTGCTGTG | 0.02 kcal/mol
37 | TTGCGCACGTGGTTGA | -0.3 kcal/mol
38 | GAAACCACGTGGGGGG | -0.15 kcal/mol
39 | AGTGTCACGTGTAGCT | -0.11 kcal/mol
40 | ACTGGCACGTGAGGGG | 0.09 kcal/mol
41 | TGAAGCACGTGAGGTT | 0.16 kcal/mol
42 | TGAGTCACGTGGGGAC | -0.03 kcal/mol
43 | TTTGTCACGTGCTTTA | 0.11 kcal/mol
44 | CTTGGCACGTGATAGG | -0.06 kcal/mol
45 | ATTGTCACGTGCTTGT | -0.14 kcal/mol
46 | TGAAACACGTGTTTGA | -0.04 kcal/mol

Row | Sequence | relative binding free energy
47 | AGGGCCACGTGGGGTA | -0.3 kcal/mol
48 | TGTTTCACGTGTTATA | 0.11 kcal/mol
49 | CTATGCACGTGATGGG | 0.09 kcal/mol
50 | TGCTGCACGTGCAGGT | -0.15 kcal/mol
51 | ATAGCCACGTGTAGTG | -0.1 kcal/mol
52 | AGGAGCACGTGTTGCT | -0.05 kcal/mol
53 | CGAGACACGTGTGGGG | 0.14 kcal/mol
54 | CTTGGCACGTGAAGTT | 0 kcal/mol
55 | ACGGGCACGTGGGCCG | -0.29 kcal/mol
56 | AAAGTCACGTGGCTTA | 0.19 kcal/mol
57 | GTGTCCACGTGTTGTA | 0.11 kcal/mol
58 | AAGTACACGTGTGCTG | 0.06 kcal/mol
59 | GCTATCACGTGTTTTT | 0.2 kcal/mol
60 | TTCAACACGTGGGTGG | 0 kcal/mol
61 | GGTATCACGTGGGCTG | 0.12 kcal/mol
62 | GGGTTCACGTGCGCTT | 0.17 kcal/mol
63 | ATTGTCACGTGCGCGT | -0.07 kcal/mol
64 | TTGCTCACGTGGAGGG | 0.19 kcal/mol
65 | AAGAACACGTGTTTTT | 0.06 kcal/mol
66 | AGTGACACGTGGTCGG | -0.09 kcal/mol
67 | TCTTGCACGTGTATAT | 0.03 kcal/mol
68 | ACGTGCACGTGTTGGA | -0.08 kcal/mol
69 | TAGTACACGTGTTGGG | 0.12 kcal/mol

Row | Sequence | relative binding free energy
70 | TGGAGCACGTGGGGAA | -0.09 kcal/mol
71 | AGGTTCACGTGGTAGA | 0.16 kcal/mol
72 | TAATGCACGTGTAAAT | 0.05 kcal/mol
73 | TGGCTCACGTGGGTCG | 0.18 kcal/mol
74 | GGCTTCACGTGCAGGG | 0.23 kcal/mol
75 | ATGACCACGTGGGTGT | -0.17 kcal/mol
76 | TAAGTCACGTGTTCGT | 0.01 kcal/mol
77 | ATGAGCACGTGTAGTC | 0.04 kcal/mol
78 | ACGTTCACGTGAAGGC | 0.6 kcal/mol
79 | GTAGTCACGTGCGTGA | 0.14 kcal/mol
80 | ATAGCCACGTGTGGGG | -0.1 kcal/mol
81 | GGTAACACGTGAGTGC | 0.25 kcal/mol
82 | GTTTCCACGTGTAATG | 0.24 kcal/mol
83 | TGGGTCACGTGGTCAT | 0.15 kcal/mol
84 | CATGTCACGTGGTGTT | 0.01 kcal/mol
85 | AGTGGCACGTGCGGGG | -0.11 kcal/mol
86 | ATGGTCACGTGTCGTA | 0.16 kcal/mol
87 | TCAAACACGTGGTTGG | 0.1 kcal/mol
88 | CGTAGCACGTGGGACG | -0.13 kcal/mol
89 | TAGGACACGTGGGTGT | -0.12 kcal/mol
90 | GTTAACACGTGAGGGC | 0.27 kcal/mol
91 | TTCTGCACGTGGGAAT | -0.15 kcal/mol
92 | AATGGCACGTGAAGCG | 0 kcal/mol

Row | Sequence | relative binding free energy
93 | TATGCCACGTGGTATG | -0.22 kcal/mol
94 | AAAGACACGTGGGGGC | -0.06 kcal/mol
95 | TATTCCACGTGTGTTG | 0.11 kcal/mol
96 | CGGGACACGTGGGTAG | -0.13 kcal/mol
97 | TTTTCCACGTGGTGTT | -0.07 kcal/mol
98 | TATGCCACGTGAGGAG | 0.17 kcal/mol
99 | TCTTGCACGTGATCGG | 0.27 kcal/mol
100 | TAAATCACGTGGAGGA | 0.12 kcal/mol
101 | ATTTTCACGTGTTGTT | 0.26 kcal/mol
102 | GTATACACGTGGGTCG | -0.12 kcal/mol
103 | ACTAACACGTGTTGTT | 0.06 kcal/mol
104 | TTTGACACGTGTCTTA | 0.03 kcal/mol
105 | CATATCACGTGAGTGT | 0.14 kcal/mol
106 | TATGACACGTGATGTA | 0.07 kcal/mol
107 | TAGGCCACGTGTGATG | 0 kcal/mol
108 | TTTAGCACGTGTGTCT | -0.01 kcal/mol
109 | AATTGCACGTGCATTG | -0.01 kcal/mol
110 | CGGGGCACGTGACTGG | -0.05 kcal/mol
111 | TGCTGCACGTGTTGTC | 0.12 kcal/mol
112 | GTGATCACGTGCATTT | 0.19 kcal/mol
113 | TTGGGCACGTGAAGAT | 0.09 kcal/mol
114 | TAATTCACGTGGCATT | 0.21 kcal/mol
115 | GATATCACGTGGAGGT | 0.26 kcal/mol
